This data set has as its target T1, N-Succinyl-Ala-Ala-Pro-Phe-p-nitroanilide.
T1 chain: AAPF

B1: immobilized keratinase (keratinase-streptavidin fusion protein bound to biotinylated beads) (protein)
chain: AQTVPYGIPLIKADKVQAQGFKGANVKVAVLDTGIQASHPDLNVVGGASFVAGEAYNTDGNGHGTHVAGTVAALDNTTGVLGVAPSVSLYAVKVLNSSGSGSYSGIVSGIEWATTNGMDVINMSLGGASGSTAMKQAVDNAYARGVVVVAAAGNSGSSGNTNTIGYPAKYDSVIAVGAVDSNSNRASFSSVGAELEVMAPGAGVYSTYPTNTYATLNGTSMVSPHVAGAAALILSKHPNLSASQVRNRLSSTATYLGSSFYYGKGLINVEAAAQ[about 150 residues not shown]
Take B1: the Km was 760 µM.

The Km is the substrate concentration at which the rate is half of its maximum.

The values above are taken from US20030108991.
